Source: patent publication US5821230A, “GnRH antagonist decapeptides” (Ferring BV, priority 1997, dated 1998)
Entries after “also recorded” stand apart in the source; their conditions may differ. Part of at least one peptide drawing is inferred or uncertain, most often the ends. Some entries repeat one wording, which the source may state once for all of them. Some ranges recur; such a range may be that of the whole group of compounds. *1 amine or outer side, *2 acyl side, *3 side chain or, on linkers, in order; H or OH if unused. Where a SMILES comes first, the peptide text is derived from it. Side-chain parts run from the residue outwards. [ ]: non-standard residue; d: D form. The star is where a group is joined. Phe(4-NH(5-NH2triazol-3-yl)) = Nc1nc(Nc2ccc(C[C@H](N)C(=O)O)cc2)n[nH]1; dPhe(4-CH2NHCONH2) = NC(=O)NCc1ccc(C[C@@H](N)C(=O)O)cc1; X2 = Nc1n[nH]c(Nc2ccc(C[C@@H](N[*:1])C(=O)[*:2])cc2)n1; Dihydroorotyl(S) = O=C1C[C@@H](C(=O)*)NC(=O)N1; dPhe(4-CH2NH2) = NCc1ccc(C[C@@H](N)C(=O)O)cc1; Phe(4-CH2NH2) = NCc1ccc(C[C@H](N)C(=O)O)cc1; dPhe(4-NH2) = Nc1ccc(C[C@@H](N)C(=O)O)cc1; dPhe(4-Cl) = N[C@H](Cc1ccc(Cl)cc1)C(=O)O; Phe(4-NH2) = Nc1ccc(C[C@H](N)C(=O)O)cc1; d2Nal = N[C@H](Cc1ccc2ccccc2c1)C(=O)O; Lys(iPr) = CC(C)NCCCC[C@H](N)C(=O)O; X1 = O=C1C[C@H](C(=O)*)NC(=O)N1; X3 = O=C1NC[C@@H](C(=O)*)N1; dDap = NC[C@@H](N)C(=O)O; CO = O=C([*:1])[*:2]

How the values were obtained:
[1] = hydrophilicity by RP-HPLC retention time, TEAP pH 7.0 gradient; format: physicochemical; details: RP-HPLC, 40% to 70% Buffer B over 30 minutes, pH 7.0
Procedure: Hydrophilicity is tested by measuring retention time using RP-HPLC with a gradient of 40% Buffer B to 70% Buffer B over 30 minutes, with Buffer A being TEAP pH 7.0 and Buffer B being 70% CH3 CN and 30% Buffer A at pH 7.0.

LH secretion = test: in vivo suppression of circulating LH levels in castrated male Sprague-Dawley rats treated subcutaneously; parameters: species or system rat; details: for duration of action, as classed in words / suppression of LH compared with a reference peptide: dosage of 50 micrograms per rat sc; for suppression of LH compared with a reference peptide: standard in vivo rat test as in Example 1; for in vivo suppression of LH secretion compared with a reference peptide: dosage not printed at the place
Procedure: The peptide is hereinafter referred to as Peptide No. 1 and is assayed in vivo to determine its effectiveness to suppress secretion of LH in rats. Measurement of circulating LH levels in castrated male Sprague-Dawley rats treated subcutaneously with the peptide is carried out as reported in C. Rivier et al. Biol. Reproduc., 1983. 29, 374-378. The peptides are first dissolved at a concentration of 1.0 or 10 mg/ml in bacteriostatic water and then further diluted in 0.04M phosphate buffer containing 0.1% BSA. Subsequent dilutions are made in phosphate buffer. The peptides are injected sc, and blood samples (300 μl) are collected under metotane anesthesia. Sera (50 […]) are tested for LH levels in duplicate using reagents provided by the National Pituitary and Hormone Distribution Program of the NIDDK. […] However, 96 hours following injection, the LH levels are only about 75% of those of the Acyline-injected rats.

Compound | hydrophilicity compared with a reference peptide [1] | duration of action, as classed in words (LH secretion) | suppression of LH compared with a reference peptide (LH secretion) | in vivo suppression of LH secretion compared with a reference peptide (LH secretion)
CC(=O)Nc1ccc(C[C@@H](NC(=O)[C@H](Cc2ccc(NC(=O)[C@@H]3CC(=O)NC(=O)N3)cc2)NC(=O)[C@H](CO)NC(=O)[C@@H](CCC(N)=O)NC(=O)[C@@H](Cc2ccc(Cl)cc2)NC(=O)[C@@H](Cc2ccc3ccccc3c2)NC(C)=O)C(=O)N[C@@H](CC(C)C)C(=O)N[C@@H](CCCCNC(C)C)C(=O)N2CCC[C@H]2C(=O)N[C@H](C)C(N)=O)cc1 [Example 7A, Ac-β-D-2Nal-D-4Cpa-D-Gln-Ser-4Aph(Hor)-D-4Aph(acetyl)-Leu-Lys(isopropyl)-Pro-D-Ala-NH2] (Ac-[d2Nal][dPhe(4-Cl)][dQ]S[Phe(4-NH2)](Dihydroorotyl(S))[dPhe(4-NH2)](Ac)L[Lys(iPr)]P[dA]-NH2) | more hydrophilic than Acyline | very long-acting | substantially as active as Acyline in suppressing LH level at 1, 2 and 3 days; also recorded: at 96 hours it shows suppression of LH to levels well below Acyline | –
CC(=O)Nc1ccc(C[C@@H](NC(=O)[C@H](Cc2ccc(NC(=O)[C@@H]3CC(=O)NC(=O)N3)cc2)NC(=O)[C@H](CO)NC(=O)[C@H](CC(N)=O)NC(=O)[C@@H](Cc2ccc(Cl)cc2)NC(=O)[C@@H](Cc2ccc3ccccc3c2)NC(C)=O)C(=O)N[C@@H](CC(C)C)C(=O)N[C@@H](CCCCNC(C)C)C(=O)N2CCC[C@H]2C(=O)N[C@H](C)C(N)=O)cc1 [Example 8H, Ac-β-D-2Nal-D-4Cpa-Asn-Ser-4Aph(hydroorotyl)-D-4Aph(acetyl)-Leu-Lys(isopropyl)-Pro-D-Ala-NH2] (Ac-[d2Nal][dPhe(4-Cl)]NS[Phe(4-NH2)](Dihydroorotyl(S))[dPhe(4-NH2)](Ac)L[Lys(iPr)]P[dA]-NH2) | more hydrophilic than Acyline | – | substantially as long acting as Acyline | –
CNC(=O)NCc1ccc(C[C@@H](NC(=O)[C@H](Cc2ccc(NC(=O)[C@@H]3CC(=O)NC(=O)N3)cc2)NC(=O)[C@H](CO)NC(=O)[C@@H](CCC(N)=O)NC(=O)[C@@H](Cc2ccc(Cl)cc2)NC(=O)[C@@H](Cc2ccc3ccccc3c2)NC(C)=O)C(=O)N[C@@H](CC(C)C)C(=O)N[C@@H](CCCCNC(C)C)C(=O)N2CCC[C@H]2C(=O)N[C@H](C)C(N)=O)cc1 [Example 7E, Ac-β-D-2Nal-D-4Cpa-D-Gln-Ser-4Aph(hydroorotyl)-D-4Amf(methylcarbamoyl)-Leu-Lys(isopropyl)-Pro-D-Ala-NH2] (Ac-[d2Nal][dPhe(4-Cl)][dQ]S[Phe(4-NH2)](Dihydroorotyl(S))[dPhe(4-CH2NH2)]([CO-NHMe])L[Lys(iPr)]P[dA]-NH2) | more hydrophilic than Acyline | – | substantially as effective as Acyline for 2 to 3 days | –
CNC(=O)NC[C@@H](NC(=O)[C@@H](Cc1ccc(Cl)cc1)NC(=O)[C@@H](Cc1ccc2ccccc2c1)NC(C)=O)C(=O)N[C@@H](CO)C(=O)N[C@@H](Cc1ccc(Nc2nc(N)n[nH]2)cc1)C(=O)N[C@H](Cc1ccc(Nc2nc(N)n[nH]2)cc1)C(=O)N[C@@H](CC(C)C)C(=O)N[C@@H](CCCCNC(C)C)C(=O)N1CCC[C@H]1C(=O)N[C@H](C)C(N)=O [Peptide No. 5, Ac-D-2Nal-D-4Cpa-D-Dpr(methylcarbamoyl)-Ser-4Aph(atz)-D-4Aph(atz)-Leu-ILys-Pro-D-Ala-NH2] (Ac-[d2Nal][dPhe(4-Cl)][dDap]([CO-NHMe])S[Phe(4-NH(5-NH2triazol-3-yl))][X2]L[Lys(iPr)]P[dA]-NH2) | more hydrophilic than Acyline | – | – | longer duration of in vivo suppression of LH secretion than Azaline B
CNC(=O)NC[C@@H](NC(=O)[C@@H](Cc1ccc(Cl)cc1)NC(=O)[C@@H](Cc1ccc2ccccc2c1)NC(C)=O)C(=O)N[C@@H](CO)C(=O)N[C@@H](Cc1ccc(NC(=O)[C@@H]2CC(=O)NC(=O)N2)cc1)C(=O)N[C@H](Cc1ccc(NC(C)=O)cc1)C(=O)N[C@@H](CC(C)C)C(=O)N[C@@H](CCCCNC(C)C)C(=O)N1CCC[C@H]1C(=O)N[C@H](C)C(N)=O [Example 5D, Ac-β-D-2Nal-D-4Cpa-D-Dpr(MeCbm)-Ser-4Aph(Hor)-D-4Aph(acetyl)-Leu-Lys(isopropyl)-Pro-D-Ala-NH2] (Ac-[d2Nal][dPhe(4-Cl)][dDap]([CO-NHMe])S[Phe(4-NH2)](Dihydroorotyl(S))[dPhe(4-NH2)](Ac)L[Lys(iPr)]P[dA]-NH2) | more hydrophilic than Acyline | – | substantially as active as Acyline in suppressing LH level for 2 days; also recorded: at 3 days it shows suppression of LH to levels less than Acyline | –
CNC(=O)NCc1ccc(C[C@@H](NC(=O)[C@H](Cc2ccc(CNC(=O)[C@@H]3CC(=O)NC(=O)N3)cc2)NC(=O)[C@H](CO)NC(=O)[C@@H](CCC(N)=O)NC(=O)[C@@H](Cc2ccc(Cl)cc2)NC(=O)[C@@H](Cc2ccc3ccccc3c2)NC(C)=O)C(=O)N[C@@H](CC(C)C)C(=O)N[C@@H](CCCCNC(C)C)C(=O)N2CCC[C@H]2C(=O)N[C@H](C)C(N)=O)cc1 [Example 7I, Ac-β-D-2Nal-D-4Cpa-D-Gln-Ser-4Amf(hydroorotyl)-D-4Amf(methylcarbamoyl)-Leu-Lys(isopropyl)-Pro-D-Ala-NH2] (Ac-[d2Nal][dPhe(4-Cl)][dQ]S[Phe(4-CH2NH2)](Dihydroorotyl(S))[dPhe(4-CH2NH2)]([CO-NHMe])L[Lys(iPr)]P[dA]-NH2) | more hydrophilic than Acyline | – | substantially as effective as Acyline for 3 days and remains effective through day 4 | –

Now from value to compound, other results behind:

hydrophilicity compared with a reference peptide [1] | Compound | duration of action, as classed in words (LH secretion) | suppression of LH compared with a reference peptide (LH secretion) | in vivo suppression of LH secretion compared with a reference peptide (LH secretion)
more hydrophilic than Acyline | CC(=O)N[C@H](Cc1ccc2ccccc2c1)C(=O)N[C@H](Cc1ccc(Cl)cc1)C(=O)N[C@H](CCC(N)=O)C(=O)N[C@@H](CO)C(=O)N[C@@H](Cc1ccc(NC(=O)[C@@H]2CC(=O)NC(=O)N2)cc1)C(=O)N[C@H](Cc1ccc(CNC(N)=O)cc1)C(=O)N[C@@H](CC(C)C)C(=O)N[C@@H](CCCCNC(C)C)C(=O)N1CCC[C@H]1C(=O)N[C@H](C)C(N)=O [Example 7C, Ac-β-D-2Nal-D-4Cpa-D-Gln-Ser-4Aph(hydroorotyl)-D-4Amf(carbamoyl)-Leu- Lys(isopropyl)-Pro-D-Ala-NH2] (Ac-[d2Nal][dPhe(4-Cl)][dQ]S[Phe(4-NH2)](Dihydroorotyl(S))[dPhe(4-CH2NHCONH2)]L[Lys(iPr)]P[dA]-NH2) | – | substantially as effective as Acyline for 2 to 3 days | –
more hydrophilic than Acyline | CC(=O)N[C@H](Cc1ccc2ccccc2c1)C(=O)N[C@H](Cc1ccc(Cl)cc1)C(=O)N[C@@H](CCC(N)=O)C(=O)N[C@@H](CO)C(=O)N[C@@H](Cc1ccc(NC(=O)[C@@H]2CC(=O)NC(=O)N2)cc1)C(=O)N[C@H](Cc1ccc(CNC(N)=O)cc1)C(=O)N[C@@H](CC(C)C)C(=O)N[C@@H](CCCCNC(C)C)C(=O)N1CCC[C@H]1C(=O)N[C@H](C)C(N)=O [Example 8C, Ac-β-D-2Nal-D-4Cpa-Gln-Ser-4Aph(hydroorotyl)-D-4Amf(carbamoyl)-Leu-Lys(isopropyl)-Pro-D-Ala-NH2] (Ac-[d2Nal][dPhe(4-Cl)]QS[Phe(4-NH2)](Dihydroorotyl(S))[dPhe(4-CH2NHCONH2)]L[Lys(iPr)]P[dA]-NH2) | – | about as effective as Acyline for 24 hours; also recorded: At 2 days, it is somewhat less effective than Acyline for the suppression of LH and its effectiveness declines rapidly thereafter | –
more hydrophilic than Acyline | CNC(=O)N[C@H](Cc1ccc2ccccc2c1)C(=O)N[C@H](Cc1ccc(Cl)cc1)C(=O)N[C@H](CCC(N)=O)C(=O)N[C@@H](CO)C(=O)N[C@@H](Cc1ccc(NC(=O)[C@@H]2CNC(=O)N2)cc1)C(=O)N[C@H](Cc1ccc(CNC(N)=O)cc1)C(=O)N[C@@H](CC(C)C)C(=O)N[C@@H](CCCCNC(C)C)C(=O)N1CCC[C@H]1C(=O)N[C@H](C)C(N)=O [Example 7H, N-methylcarbamoyl-β-D-2Nal-D-4Cpa-D-Gln-Ser-4Aph(Imz)-D-4Amf(carbamoyl)-Leu-Lys(isopropyl)-Pro-D-Ala-NH2] ({NHMe-CO}-[d2Nal][dPhe(4-Cl)][dQ]S[Phe(4-NH2)](X3)[dPhe(4-CH2NHCONH2)]L[Lys(iPr)]P[dA]-NH2) | – | – | substantially as effective as Acyline for 2 to 3 days in LH suppression
more hydrophilic than Acyline | CNC(=O)N[C@H](Cc1ccc2ccccc2c1)C(=O)N[C@H](Cc1ccc(Cl)cc1)C(=O)N[C@H](CCC(N)=O)C(=O)N[C@@H](CO)C(=O)N[C@@H](Cc1ccc(NC(=O)[C@H]2CC(=O)NC(=O)N2)cc1)C(=O)N[C@H](Cc1ccc(CNC(N)=O)cc1)C(=O)N[C@@H](CC(C)C)C(=O)N[C@@H](CCCCNC(C)C)C(=O)N1CCC[C@H]1C(=O)N[C@H](C)C(N)=O [Example 7G, N-methylcarbamoyl-β-D-2Nal-D-4Cpa-D-Gln-Ser-4Aph(D-hydroorotyl)-D-4Amf(carbamoyl)-Leu-Lys(isopropyl)-Pro-D-Ala-NH2] ({NHMe-CO}-[d2Nal][dPhe(4-Cl)][dQ]S[Phe(4-NH2)](X1)[dPhe(4-CH2NHCONH2)]L[Lys(iPr)]P[dA]-NH2) | short-acting | nearly as effective as Acyline for 1 day and then fairly quickly losing its effectiveness | –
